These are yes or no findings as the source states them, for the method shown. For part of these data: Binding seen in cells or lysates may run through a third protein. Some binding calls cover weakened binding; strength is not graded here. For part of these data: Where a sequence is shown, tags or fusion partners need not be part of it. Values belong to the molecule of their own block, whether it stands above or below them.
What was measured:
[1] = target: T1, Myc-FXR (Farnesoid X receptor, full length) (human) (UniProt Q96RI1); experiment: co-IP; HEK293 (legends: HEK293T) cells co-transfected with Myc-FXR or Myc-tagged FXR deletion mutants and HA-β-Catenin or HA-TCF4; lysates precipitated with anti-Myc agarose, blot with anti-HA; lysis buffer 50 mM HEPES pH 7.5, 150 mM NaCl, 1% Triton X-100
T1 sequence: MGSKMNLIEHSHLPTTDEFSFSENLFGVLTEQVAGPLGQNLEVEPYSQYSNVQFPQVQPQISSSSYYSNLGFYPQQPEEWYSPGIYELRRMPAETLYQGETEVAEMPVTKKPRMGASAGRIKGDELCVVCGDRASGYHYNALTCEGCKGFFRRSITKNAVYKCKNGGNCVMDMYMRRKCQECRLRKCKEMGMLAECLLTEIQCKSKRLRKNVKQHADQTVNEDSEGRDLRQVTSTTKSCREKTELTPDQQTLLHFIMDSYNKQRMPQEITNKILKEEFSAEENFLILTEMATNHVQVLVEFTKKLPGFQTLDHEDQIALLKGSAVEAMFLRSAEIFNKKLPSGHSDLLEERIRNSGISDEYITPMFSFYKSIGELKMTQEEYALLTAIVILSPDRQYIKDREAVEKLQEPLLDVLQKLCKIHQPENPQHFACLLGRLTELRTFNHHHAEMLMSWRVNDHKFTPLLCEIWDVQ

Amino acid sequences for entries named in this document (tags omitted).
UniProt P35222: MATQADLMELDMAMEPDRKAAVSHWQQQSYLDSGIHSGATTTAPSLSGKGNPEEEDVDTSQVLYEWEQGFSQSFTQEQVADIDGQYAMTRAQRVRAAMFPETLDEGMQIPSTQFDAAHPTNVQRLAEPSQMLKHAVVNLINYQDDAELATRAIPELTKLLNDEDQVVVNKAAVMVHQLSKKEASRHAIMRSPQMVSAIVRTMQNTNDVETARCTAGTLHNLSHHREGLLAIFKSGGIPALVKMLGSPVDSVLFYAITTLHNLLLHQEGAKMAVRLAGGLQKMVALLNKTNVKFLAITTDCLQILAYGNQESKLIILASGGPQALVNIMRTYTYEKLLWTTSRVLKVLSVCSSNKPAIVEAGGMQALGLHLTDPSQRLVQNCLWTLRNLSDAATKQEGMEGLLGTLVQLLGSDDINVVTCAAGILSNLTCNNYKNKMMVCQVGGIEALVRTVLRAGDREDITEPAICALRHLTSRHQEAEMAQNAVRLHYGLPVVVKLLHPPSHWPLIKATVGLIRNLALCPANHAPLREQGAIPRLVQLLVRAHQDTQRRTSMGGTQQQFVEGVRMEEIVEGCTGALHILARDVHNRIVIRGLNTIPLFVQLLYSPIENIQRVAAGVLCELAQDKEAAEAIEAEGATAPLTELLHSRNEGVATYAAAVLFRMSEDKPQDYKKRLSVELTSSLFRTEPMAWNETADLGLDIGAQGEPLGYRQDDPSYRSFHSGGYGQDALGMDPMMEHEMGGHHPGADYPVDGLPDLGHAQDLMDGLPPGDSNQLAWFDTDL
UniProt Q9NQB0: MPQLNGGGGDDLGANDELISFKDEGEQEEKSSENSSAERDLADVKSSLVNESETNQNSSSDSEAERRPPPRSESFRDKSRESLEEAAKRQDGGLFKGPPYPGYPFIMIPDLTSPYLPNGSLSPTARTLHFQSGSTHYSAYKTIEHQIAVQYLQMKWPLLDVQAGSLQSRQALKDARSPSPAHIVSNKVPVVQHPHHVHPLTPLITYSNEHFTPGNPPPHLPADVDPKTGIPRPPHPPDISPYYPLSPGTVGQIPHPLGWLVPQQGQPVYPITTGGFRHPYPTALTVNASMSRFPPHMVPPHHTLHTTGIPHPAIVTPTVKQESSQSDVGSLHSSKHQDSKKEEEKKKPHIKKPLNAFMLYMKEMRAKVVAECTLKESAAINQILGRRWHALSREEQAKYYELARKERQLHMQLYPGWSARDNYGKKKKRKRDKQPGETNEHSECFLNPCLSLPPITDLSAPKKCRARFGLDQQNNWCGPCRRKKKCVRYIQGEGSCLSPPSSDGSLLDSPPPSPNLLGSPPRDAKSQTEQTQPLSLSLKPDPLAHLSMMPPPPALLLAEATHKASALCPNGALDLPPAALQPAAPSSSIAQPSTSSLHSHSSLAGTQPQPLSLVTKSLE

[2] = target: T2, Myc-FXR(Δ125) (human) (UniProt Q96RI1); experiment: as above
T2 sequence: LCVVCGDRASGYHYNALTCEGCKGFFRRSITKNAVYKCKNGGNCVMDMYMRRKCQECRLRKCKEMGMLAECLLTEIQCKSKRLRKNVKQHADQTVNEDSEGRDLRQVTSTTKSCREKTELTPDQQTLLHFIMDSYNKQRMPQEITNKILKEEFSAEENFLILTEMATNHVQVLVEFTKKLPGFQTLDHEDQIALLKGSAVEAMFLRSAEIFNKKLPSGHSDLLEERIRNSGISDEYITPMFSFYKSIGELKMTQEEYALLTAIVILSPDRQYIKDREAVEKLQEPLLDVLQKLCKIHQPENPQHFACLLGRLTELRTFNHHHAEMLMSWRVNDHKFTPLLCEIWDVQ

[3] = target: T3, Myc-FXR(Δ186) (human) (UniProt Q96RI1); experiment: as above
T3 sequence: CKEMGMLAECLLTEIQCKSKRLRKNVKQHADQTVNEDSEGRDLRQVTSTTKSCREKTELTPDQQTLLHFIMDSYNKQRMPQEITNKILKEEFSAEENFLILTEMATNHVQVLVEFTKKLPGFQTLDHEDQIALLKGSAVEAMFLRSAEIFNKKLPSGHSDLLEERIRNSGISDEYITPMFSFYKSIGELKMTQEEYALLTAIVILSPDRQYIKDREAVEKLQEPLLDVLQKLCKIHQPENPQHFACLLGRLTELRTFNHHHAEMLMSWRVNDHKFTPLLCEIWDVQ

[4] = target: T4, Myc-FXR(Δ240) (human) (UniProt Q96RI1); experiment: as above
T4 sequence: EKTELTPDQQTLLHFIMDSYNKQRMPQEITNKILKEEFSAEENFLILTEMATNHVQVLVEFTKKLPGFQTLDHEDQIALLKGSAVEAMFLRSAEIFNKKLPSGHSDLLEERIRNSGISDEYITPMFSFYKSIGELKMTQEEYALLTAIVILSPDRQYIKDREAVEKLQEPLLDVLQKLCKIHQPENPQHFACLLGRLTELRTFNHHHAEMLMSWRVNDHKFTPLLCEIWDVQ

[5] = target: T5, Myc-FXR(ΔAF2) (human) (UniProt Q96RI1); experiment: as above
T5 sequence: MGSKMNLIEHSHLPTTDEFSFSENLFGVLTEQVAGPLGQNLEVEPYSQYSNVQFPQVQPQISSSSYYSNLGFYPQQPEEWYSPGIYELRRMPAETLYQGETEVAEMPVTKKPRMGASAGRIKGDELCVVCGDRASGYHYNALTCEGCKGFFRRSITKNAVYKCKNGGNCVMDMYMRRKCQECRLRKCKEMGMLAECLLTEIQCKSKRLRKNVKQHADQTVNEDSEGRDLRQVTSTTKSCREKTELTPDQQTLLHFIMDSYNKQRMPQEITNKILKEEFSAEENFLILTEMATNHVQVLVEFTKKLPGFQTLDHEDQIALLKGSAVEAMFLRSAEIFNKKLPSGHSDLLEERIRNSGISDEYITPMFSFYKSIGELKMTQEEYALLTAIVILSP

[6] = target: T6, Myc-FXR(ΔC-ter) (human) (UniProt Q96RI1); experiment: as above
T6 sequence: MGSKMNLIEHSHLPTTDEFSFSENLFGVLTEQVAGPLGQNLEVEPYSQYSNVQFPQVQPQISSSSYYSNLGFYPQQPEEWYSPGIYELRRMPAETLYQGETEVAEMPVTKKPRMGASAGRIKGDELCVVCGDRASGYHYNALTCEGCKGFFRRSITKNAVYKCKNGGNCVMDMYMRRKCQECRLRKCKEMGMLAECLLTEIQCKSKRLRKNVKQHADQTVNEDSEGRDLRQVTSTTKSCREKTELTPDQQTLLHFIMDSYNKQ

[7] = target: T7, endogenous FXR (human (endogenous in Huh7 and PLC-5)) (UniProt Q96RI1); experiment: co-IP; endogenous proteins in Huh7 or PLC-5 cell lysates; anti-FXR antibody followed by IgG agarose; bound β-Catenin detected by Western blot
T7 sequence: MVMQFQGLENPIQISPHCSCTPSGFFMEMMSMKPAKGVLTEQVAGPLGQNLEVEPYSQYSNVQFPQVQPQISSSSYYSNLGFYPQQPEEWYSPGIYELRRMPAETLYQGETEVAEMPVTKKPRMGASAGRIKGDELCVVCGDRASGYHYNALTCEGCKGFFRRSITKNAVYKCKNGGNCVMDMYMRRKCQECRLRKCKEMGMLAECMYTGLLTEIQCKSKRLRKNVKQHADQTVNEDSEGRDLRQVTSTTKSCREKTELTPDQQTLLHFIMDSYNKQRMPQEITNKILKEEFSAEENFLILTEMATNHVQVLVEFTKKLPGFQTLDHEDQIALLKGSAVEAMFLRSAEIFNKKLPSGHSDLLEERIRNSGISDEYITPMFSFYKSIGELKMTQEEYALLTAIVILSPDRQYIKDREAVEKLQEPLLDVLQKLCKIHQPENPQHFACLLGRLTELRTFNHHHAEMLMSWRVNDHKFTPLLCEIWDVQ

[8] = target: GST-β-Catenin (UniProt P35222); experiment: pull-down; GST or GST-β-Catenin on glutathione-Sepharose 4B beads, incubated with purified His-FXR at 4°C overnight in 20 mM Tris-HCl pH 7.5, 150 mM NaCl, 0.2% Nonidet P40, 10% glycerol; 6 washes; Western blot; both purified

Molecule: HA-TCF4 (from UniProt Q9NQB0 1-619)
binding [1]: no binding

Molecule: HA-β-Catenin (wild type) (from UniProt P35222 1-781)
binding [1]: binds
binding [2]: no binding
binding [3]: no binding
binding [4]: no binding
binding [5]: binds
binding [6]: binds

Next, values leading:

binding [7]: binds
Molecule: endogenous β-Catenin (from UniProt P35222 1-781)

binding [8]: binds
B1: His-FXR (protein, UniProt Q96RI1 1-486)
chain: MVMQFQGLENPIQISPHCSCTPSGFFMEMMSMKPAKGVLTEQVAGPLGQNLEVEPYSQYSNVQFPQVQPQISSSSYYSNLGFYPQQPEEWYSPGIYELRRMPAETLYQGETEVAEMPVTKKPRMGASAGRIKGDELCVVCGDRASGYHYNALTCEGCKGFFRRSITKNAVYKCKNGGNCVMDMYMRRKCQECRLRKCKEMGMLAECMYTGLLTEIQCKSKRLRKNVKQHADQTVNEDSEGRDLRQVTSTTKSCREKTELTPDQQTLLHFIMDSYNKQRMPQEITNKILKEEFSAEENFLILTEMATNHVQVLVEFTKKLPGFQTLDHEDQIALLKGSAVEAMFLRSAEIFNKKLPSGHSDLLEERIRNSGISDEYITPMFSFYKSIGELKMTQEEYALLTAIVILSPDRQYIKDREAVEKLQEPLLDVLQKLCKIHQPENPQHFACLLGRLTELRTFNHHHAEMLMSWRVNDHKFTPLLCEIWDVQ

From paper PMC4414185
